Laboratory results published in PubChem BioAssay (NCATS).
Values joined by “and” are separate entries in the source; they are usually repeats but may differ in a detail not shown here. Identical values can stand only once. Inconclusive means that the source gave no clear call. Such entries were picked first, then a sample of the others. A potency beside an inconclusive call is a rough fit, not a confirmed value. Active and inactive are the calls of the source. The call rests on the fitted dose curve; in most records, active means well fitted curve in the direction sought with a large enough effect; inconclusive means small, poorly fitted or top-dose-only effect, or another doubt; inactive means no such curve, though single readings can be large; an effect the other way counts as inactive or inconclusive.

Legend:
[1] = qHTS of pediatric cancer cell lines to identify multiple opportunities for drug repurposing: Primary screen for TC32 cells (AID 1347089); conditions: TC32 Ewing sarcoma viability, CellTiter-Glo luminescence, 48 h; series mostly up to 45.8 µM; further: nearly all actives have a fitted effect of over 60% in size
How it was run: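 A viability screen of TC32 cells was run over 48 h, with primary MIPE doses spanning 0.78 nM–46 µM and NPC doses 0.59 nM–46 µM. ATP luminescence (CellTiter-Glo) served as the read-out.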

[2] = qHTS of pediatric cancer cell lines to identify multiple opportunities for drug repurposing: Primary screen for DAOY cells (AID 1347090); conditions: DAOY medulloblastoma viability, CellTiter-Glo luminescence, 48 h; series mostly up to 46 µM; further: nearly all actives have a fitted effect of over 55% in size
How it was run: (§1)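 Cell viability, CellTiter-Glo luminescence; 500-1,000 cells/well, 8- or 11-point titration, 48 h compound exposure at 37 degrees C, 5% CO2. Controls: DMSO neutral, bortezomib 2.3 µM final as positive.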

[3] = qHTS of pediatric cancer cell lines to identify multiple opportunities for drug repurposing: Primary screen for BT-37 cells (AID 1347094); conditions: BT-37 viability, CellTiter-Glo luminescence, 48 h; series mostly up to 57.3 µM
How it was run: (§2)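 Cells plated at 500-1,000/well in growth medium, compounds added after 5 h. MIPE tested at 11 points (from 0.78 nM), NPC at 8 points (from 0.59 nM). CellTiter-Glo luminescence after 48 h; concentration-response curves from primary screen.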

[4] = qHTS of pediatric cancer cell lines to identify multiple opportunities for drug repurposing: Primary screen for NB-EBc1 cells (AID 1347095); conditions: NB-EBc1 neuroblastoma viability, CellTiter-Glo luminescence, 48 h; series mostly up to 46 µM
How it was run: as §2

[5] = qHTS of pediatric cancer cell lines to identify multiple opportunities for drug repurposing: Primary screen for U-2 OS cells (AID 1347096); conditions: U-2 OS viability, CellTiter-Glo luminescence, 48 h; series mostly up to 46 µM; further: nearly all actives have a fitted effect of over 50% in size
How it was run: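 Cells (500-1,000/well) rested 5 h, then received compounds for 48 h; metabolically active cells were measured by CellTiter-Glo luminescence. Final concentrations spanned up to 46 µM (MIPE, 11-point) or 0.59 nM-46 µM (NPC, 8-point) in primary screens, 11-point in follow-ups.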

[6] = qHTS of pediatric cancer cell lines to identify multiple opportunities for drug repurposing: Primary screen for SJ-GBM2 cells (AID 1347091); conditions: SJ-GBM2 viability, CellTiter-Glo luminescence, 48 h; series mostly up to 46 µM
How it was run: as §1

[7] = qHTS of pediatric cancer cell lines to identify multiple opportunities for drug repurposing: Primary screen for SK-N-MC cells (AID 1347093); conditions: SK-N-MC viability, CellTiter-Glo luminescence, 48 h; activity change, negative = cytotoxic: at 46 µM (top of the series)
How it was run: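 Metabolically active cells were quantified by ATP-dependent luminescence (CellTiter-Glo, 15 min at room temperature) following 48 h treatment. Cells had been plated at 500-1,000 per well and settled for 5 h beforehand.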

[8] = qHTS of pediatric cancer cell lines to identify multiple opportunities for drug repurposing: Primary screen for A673 cells (AID 1347092); conditions: A673 Ewing sarcoma viability, CellTiter-Glo ATP luminescence, 48 h; activity change, negative = cytotoxic: at 46 µM (top of the series); further: nearly all actives have a fitted effect of over 45% in size
How it was run: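 Titration-based qHTS on A673 cells: MIPE compounds spanned 11 points (0.78 nM to 46 µM final), NPC compounds 8 points (0.59 nM to 46 µM final). Viability after 48 h was measured by ATP luminescence.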
Potency means the concentration at half of the fitted maximal effect; tags describe the fitted curve by direction and shape.

SMILES | Potency [1] | Potency [2] | Potency [3] | Potency [4] | Potency [5] | Potency [6] | Potency [7] | Potency [8]
CCCCCCCCCCCCCCCC[N+](C)(C)CC | inconclusive: 26.4 µM [cytotoxic, single point] | active: 13.3 µM | active: 13.8 µM | inconclusive: 23.7 µM [cytotoxic, single point] | inconclusive: 21.1 µM [cytotoxic, single point] |  |  | 
COc1cc2c(cc1OC)[C@@H]1CC(=O)[C@@H](CC(C)C)CN1CC2 | inactive |  |  |  |  | inactive |  | 
COc1ccc(Nc2cc(-c3cnc(N)nc3)nc(N3CCOCC3)n2)cn1 | active: 4.66 µM |  |  |  | active: 14.8 µM | active: 4.18 µM |  | 
NC(=O)c1cccc(-c2cccc(OC(=O)NC3CCCCC3)c2)c1 | inactive |  |  |  |  | inconclusive: 20.9 µM [cytotoxic, single point] |  | 
CCCCCCC[N+](CC)(CC)CCCCc1ccc(Cl)cc1 | inconclusive: 33.3 µM [cytotoxic, single point] | active: 26.6 µM |  | active: 10.6 µM | inconclusive: 13.3 µM [cytotoxic, partial curve, poor fit] |  | active: 3.35 µM | 
CCc1cnn2c(NCc3ccc[n+]([O-])c3)cc(N3CCCC[C@@H]3CCO)nc12 | active: 0.131 µM |  | active: 0.0385 µM | active: 0.0187 µM | inconclusive: 0.0296 µM [cytotoxic, full curve] | active: 0.0235 µM | active: 0.0296 µM | 
C#Cc1cccc(Nc2ncnc3cc(OCCOC)c(OCCOC)cc23)c1 | inconclusive: 18.6 µM [cytotoxic, single point] and inconclusive: 21 µM [cytotoxic, single point] | inconclusive: 1.48 µM [cytotoxic, full curve] and inconclusive: 5.31 µM [cytotoxic, partial curve] |  |  | inconclusive: 21.1 µM [cytotoxic, partial curve, poor fit] |  |  | 
CN1CCCN(C(c2ccccc2)c2ccc(Cl)cc2)CC1 (configuration not stated) | inactive |  | inconclusive: 24.6 µM [cytotoxic, single point] | inactive |  | inconclusive: 29.9 µM [cytotoxic, single point] | inconclusive: 33.5 µM [cytotoxic, single point] | inconclusive: 26.6 µM [cytotoxic, single point]
C[C@@H]1COC(Nc2ccc3ncnc(Nc4ccc(OCc5nccs5)c(Cl)c4)c3c2)=N1 | inactive |  |  |  | inconclusive: 18.7 µM [cytotoxic, partial curve] | active: 23.5 µM | active: 2.35 µM | 
COc1ccc(-c2cc3c(C)nc(N)nc3n(C3CCC(OCCO)CC3)c2=O)cn1 (configuration not stated) | active: 0.186 µM | active: 0.118 µM | active: 0.243 µM | active: 0.059 µM | active: 0.469 µM |  |  | 
CCCCOc1cc(C(=O)NCCN(CC)CC)c2ccccc2n1 | inactive |  | inconclusive: 15.5 µM [cytotoxic, partial curve, poor fit] |  |  | inconclusive: 23.7 µM [cytotoxic, single point] | inconclusive: 33.5 µM [cytotoxic, single point] | inconclusive: 21.1 µM [cytotoxic, partial curve]
CCOc1ccccc1N=Nc1c(C)[nH]n(-c2nc(-c3ccccc3)cs2)c1=O |  | inconclusive: 14.8 µM [cytotoxic, partial curve, poor fit] |  |  | inactive | inconclusive: 18.7 µM [cytotoxic, partial curve] |  | inconclusive: 5.9 µM [cytotoxic, partial curve]
O=C(NCC1CN(c2ccc(N3CCOCC3=O)cc2)C(=O)O1)c1ccc(Cl)s1 (configuration not stated) |  | inactive |  |  |  |  |  | inconclusive: 11.8 µM [cytotoxic, partial curve]
